Some of the results follow. The energies were worked out here from pooled read counts, against the library average; single values are noisy.
Each sequence was assayed against T1, Pho4 (S. cerevisiae) (UniProt P07270) (assay: relative binding free energy (BET-seq); higher = weaker binding). Details: reference: library average.
T1 sequence: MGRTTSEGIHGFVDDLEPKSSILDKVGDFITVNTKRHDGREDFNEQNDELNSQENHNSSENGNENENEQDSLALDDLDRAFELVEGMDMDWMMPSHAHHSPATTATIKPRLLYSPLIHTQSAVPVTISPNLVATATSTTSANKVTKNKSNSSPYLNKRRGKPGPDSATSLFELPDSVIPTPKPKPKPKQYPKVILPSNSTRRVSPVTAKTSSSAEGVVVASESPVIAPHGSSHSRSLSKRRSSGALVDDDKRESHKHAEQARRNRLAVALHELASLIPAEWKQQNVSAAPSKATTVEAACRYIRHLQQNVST

Row | Sequence | relative binding free energy [kcal/mol]
1 | ATTTGCACGTGTATGG | 0.09
2 | AAGGTCACGTGATATT | 0.18
3 | CTATACACGTGTATGG | 0.08
4 | GGTAGCACGTGCGTAG | -0.1
5 | GATTTCACGTGGGAGG | 0.25
6 | CGGTACACGTGCATGG | 0.05
7 | TAAGTCACGTGTTTAT | 0.01
8 | ATGTTCACGTGGAAAT | 0.25
9 | TACTTCACGTGGTTGG | 0.18
10 | GGTTTCACGTGCTGTT | 0.34
11 | AGTGACACGTGCTTGG | -0.11
12 | GGCTGCACGTGTATTT | 0.18
13 | GTTGACACGTGGAGCG | 0.24
14 | GAGGTCACGTGGGGAG | 0.09
15 | CGTGGCACGTGGAGGT | 0.01
16 | GGGATCACGTGTTAAG | 0.12
17 | TTCTACACGTGGTGTG | -0.08
18 | CTGGTCACGTGATGGT | 0.2
19 | TTGGGCACGTGAGCGG | 0.06
20 | ATGTTCACGTGGTAGA | 0.13
21 | CTCGTCACGTGTGGTG | 0.14
22 | GTTGCCACGTGTATGT | 0
23 | TGACGCACGTGGGTCT | -0.25

Row | Sequence | relative binding free energy [kcal/mol]
24 | TGGTACACGTGTGCTG | 0.14
25 | GGAAGCACGTGAGATG | 0.09
26 | AGAGTCACGTGGTGTC | 0.09
27 | GATTTCACGTGAGTCG | 0.49
28 | TATGTCACGTGGATGG | 0.2
29 | AAATTCACGTGGTAAG | 0.24
30 | ATGGTCACGTGGGACG | 0.09
31 | TCTTTCACGTGTTAAA | 0.3
32 | GTTTACACGTGTTCTG | 0.14
33 | GTCGGCACGTGGGGAA | -0.08
34 | ATTGGCACGTGATTGT | -0.08
35 | TGTTGCACGTGCTGTA | -0.08
36 | GTAGTCACGTGGCAGG | 0.05
37 | AGTTGCACGTGTGGTG | 0.07
38 | CTTTACACGTGGGTGA | -0.04
39 | GGGTGCACGTGACGGA | 0.16
40 | ATTTGCACGTGTAGTT | 0.11
41 | AGGGACACGTGCGGTT | 0
42 | TAGCGCACGTGAGTTG | 0.04
43 | CTTTACACGTGTGTAT | 0.06
44 | AGGTGCACGTGGTAGA | -0.11
45 | GTGTACACGTGAGAGG | 0.34
46 | TAAGGCACGTGAGTTA | 0.11

Row | Sequence | relative binding free energy [kcal/mol]
47 | TAAGGCACGTGTGTGT | -0.12
48 | GCGGGCACGTGAGGGA | 0.12
49 | GAGTTCACGTGGTATC | 0.39
50 | TTTTTCACGTGAGTGG | 0.33
51 | ATGTGCACGTGGTCGT | -0.18
52 | GCTGGCACGTGGGCTT | -0.18
53 | TTTGACACGTGACGGA | 0.08
54 | TTGGGCACGTGTAAAA | 0.05
55 | CAATTCACGTGGTTAT | 0.32
56 | TGGGACACGTGTTGGT | 0.01
57 | TTTCGCACGTGTTCGG | -0.07
58 | GGGTTCACGTGATGCA | 0.34
59 | TTCGTCACGTGGTCTG | -0.03
60 | TGGATCACGTGGAGGT | 0.25
61 | GAAAGCACGTGCGGGG | -0.08
62 | TTGATCACGTGATGTG | 0.34
63 | TCTGGCACGTGGTACG | -0.26
64 | ACATTCACGTGCGGTG | 0.38
65 | TTGTACACGTGGATTT | 0.21
66 | TCAGTCACGTGTTCGT | -0.02
67 | TGTTTCACGTGTTCAG | 0.24
68 | GGTGGCACGTGTTAGG | 0.05
69 | GTTGGCACGTGCTCGG | -0.21

Row | Sequence | relative binding free energy [kcal/mol]
70 | TATGGCACGTGGTTGT | -0.14
71 | TGAAGCACGTGAGCGG | 0.11
72 | TAAGACACGTGTGGGC | 0.14
73 | GGGGGCACGTGTGCAC | -0.09
74 | AGTGACACGTGGGTAA | -0.17
75 | ATGGACACGTGATAGT | 0.1
76 | ATGGTCACGTGGGAAT | -0.01
77 | TTTTGCACGTGATGAT | 0.14
78 | AAATGCACGTGGGGCG | -0.12
79 | GCTGGCACGTGGTGTG | -0.06
80 | AGGAGCACGTGGTTGT | -0.05
81 | ATGGGCACGTGCTTTA | -0.27
82 | CTGTTCACGTGGTCGG | 0.13
83 | GTGTTCACGTGCGTGA | 0.19
84 | TAGGGCACGTGTTGAT | -0.05
85 | TAAGGCACGTGAGGTC | 0.24
86 | TTATACACGTGGATAA | 0.08
87 | ATGATCACGTGTTATG | 0.05
88 | GTCAGCACGTGTGTTA | 0.17
89 | TCTGGCACGTGTTTAG | -0.08
90 | GTAGGCACGTGAGGGC | 0.15
91 | CTTGCCACGTGGGTAG | -0.17
92 | GGGTCCACGTGGTGAG | 0.1

Row | Sequence | relative binding free energy [kcal/mol]
93 | TCAAGCACGTGGAGGG | -0.17
94 | AGGGACACGTGGTCAG | -0.14
95 | GTAATCACGTGGGAAA | 0.26
96 | CTTTCCACGTGATTGT | 0.18
97 | TACGACACGTGTGTGG | 0.06
98 | GGTCACACGTGTTGAG | 0.11
99 | TATAACACGTGGGAAG | -0.05
100 | GGAAGCACGTGTGGGA | -0.1
101 | CGGGACACGTGTCGGT | 0.11
102 | AGCGGCACGTGCAGGA | -0.02
103 | TTCGTCACGTGGGGAA | 0.01
104 | GGGCACACGTGGGACT | 0.14
105 | GTCGGCACGTGTGTAT | 0.08
106 | AACTTCACGTGGCGGG | 0.27
107 | GTTATCACGTGTAGTC | 0.11
108 | TGCTGCACGTGGGGGT | -0.18
109 | TAGGACACGTGGAATG | 0.14
110 | CGGTGCACGTGAGGGA | 0.2
111 | AATGCCACGTGAGGTT | 0.19
112 | TGGGGCACGTGCATTA | -0.23
113 | GGGCTCACGTGGGTCG | 0.06
114 | TTTATCACGTGCGTAA | 0.15
115 | CTGGTCACGTGTAGTG | 0.03

— the BET-seq Pho4 binding data (Le et al. 2018)
